# In publication PMC4336329 (PLoS ONE, 2015):
# The campaign covered roughly 310,000 compounds. About 14,000 (4.5%) showed an effect of 50% or more. The effect is printed as a negative number. This is one part of the list.
# Biological target: human ether-à-go-go-related gene (hERG) potassium channel (human, UniProt Q12809)
# Experiment: primary screen, population patch clamp on CHO cells stably expressing hERG
# 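Further: peak tail current of the secondary pulse compared with the same well before compound.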
# Sequence of human ether-à-go-go-related gene (hERG) potassium channel (Q12809 whole entry, looked up): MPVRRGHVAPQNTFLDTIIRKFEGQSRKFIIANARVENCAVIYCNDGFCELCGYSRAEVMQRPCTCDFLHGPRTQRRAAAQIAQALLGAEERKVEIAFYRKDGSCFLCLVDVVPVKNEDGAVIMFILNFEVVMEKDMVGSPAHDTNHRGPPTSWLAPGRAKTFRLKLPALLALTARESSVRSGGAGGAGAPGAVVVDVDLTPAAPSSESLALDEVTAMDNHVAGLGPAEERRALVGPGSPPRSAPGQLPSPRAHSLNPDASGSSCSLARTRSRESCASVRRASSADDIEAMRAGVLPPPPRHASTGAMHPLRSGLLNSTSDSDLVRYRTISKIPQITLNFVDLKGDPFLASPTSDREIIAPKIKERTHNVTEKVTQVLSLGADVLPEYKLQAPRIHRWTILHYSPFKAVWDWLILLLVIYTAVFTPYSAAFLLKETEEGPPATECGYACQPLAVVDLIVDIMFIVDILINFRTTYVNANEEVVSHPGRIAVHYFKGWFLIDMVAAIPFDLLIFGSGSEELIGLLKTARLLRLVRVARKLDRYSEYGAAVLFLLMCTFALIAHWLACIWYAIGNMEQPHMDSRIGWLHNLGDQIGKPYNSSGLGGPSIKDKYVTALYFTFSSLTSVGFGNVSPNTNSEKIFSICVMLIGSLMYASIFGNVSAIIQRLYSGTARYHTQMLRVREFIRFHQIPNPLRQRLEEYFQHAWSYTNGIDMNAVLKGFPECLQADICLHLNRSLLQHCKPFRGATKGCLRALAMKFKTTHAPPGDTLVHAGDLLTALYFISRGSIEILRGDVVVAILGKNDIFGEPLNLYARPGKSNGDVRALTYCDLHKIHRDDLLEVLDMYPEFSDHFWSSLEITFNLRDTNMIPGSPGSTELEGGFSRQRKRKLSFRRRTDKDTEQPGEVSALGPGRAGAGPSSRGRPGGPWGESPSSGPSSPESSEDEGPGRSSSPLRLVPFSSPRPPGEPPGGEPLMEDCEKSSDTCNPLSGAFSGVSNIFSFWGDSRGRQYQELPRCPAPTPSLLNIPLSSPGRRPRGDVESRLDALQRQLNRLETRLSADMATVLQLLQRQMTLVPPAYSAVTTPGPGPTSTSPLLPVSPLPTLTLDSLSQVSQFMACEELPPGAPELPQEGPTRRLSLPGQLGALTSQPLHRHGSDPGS
row,SMILES,"hERG current change (%, negative = inhibition) at 10uM [%]"
1,O=C(c1ccc2c(c1)OCO2)C1CCCN(C2CCN(CCc3ccccc3)CC2)C1 (centres unmarked),-69.3
2,CN(c1nc2ccccc2n2c(C3CC3)nnc12)S(=O)(=O)c1ccccc1,11.5
3,CSC1=N/C(=C\C=C\c2cccs2)C(=O)S1,13.4
4,CCCC(C)NC(=S)Nc1cc(C)cc(C)c1 (centres unmarked),-10.1
5,O=S(=O)(NC1CCc2ccccc21)c1ccc(S(=O)(=O)N2CCCC2)cc1 (centres unmarked),-10.5
6,COc1cc(C(=O)OCc2cc(=O)c(O)co2)ccc1OC(F)F,-12.9
7,CC(=O)/C(=N\Nc1cccc(Cl)c1)Sc1nnc(-c2ccccc2)n1-c1ccccc1,-1.85
8,Fc1ccccc1CSc1nnc(-c2ccccc2)o1,-9.31
9,COc1cccc(/C=N/Nc2ccc([N+](=O)[O-])cn2)c1O,2.03
10,COc1ccc2[nH]c(=O)c(CN(C(=O)c3ccncc3)C(C)C)cc2c1,-20.6
11,CCc1noc(C)c1C(=O)OCC(=O)NCc1ccccc1,2.29
12,CC(=O)c1cccc(NC(=O)Cn2cnc(S(=O)(=O)N3CCCC3)c2)c1,23
13,CN1CCN(Cc2ccc(Br)s2)CC1,8.42
14,Cc1ccc(OCCCN2CCOCC2)cc1,13.3
15,CSc1cccc(CN2CCN(Cc3ccc(F)c(F)c3)C(CCO)C2)c1 (centres unmarked),-69.5
16,CCOC(=O)c1cnn(-c2nc(OCC)cc(OCC)n2)c1C,-0.293
17,COc1cccc(C(C(=O)NCc2ccco2)N(Cc2ccco2)C(=O)Cn2nnc3ccccc32)c1 (centres unmarked),6.29
18,Cc1ccc(C(CC(=O)O)NC(=O)CN2C(=O)c3ccccc3C2=O)cc1 (centres unmarked),18.4
19,COC(=O)c1ccc(CSc2nc(C)nc3sc(C)c(C)c23)o1,3.87
20,O=C(CC1S/C(=N/N=C/c2cccs2)NC1=O)Nc1ccc(Cl)cc1 (centres unmarked),-3.86
21,COC(=O)CC1COc2ccccc2N1S(=O)(=O)c1ccc(Br)cc1 (centres unmarked),11.4
22,CCC(=O)OC1(C)C(=O)C=C2C=C(C3CC3)OC=C2C1=O (centres unmarked),12.5
23,CCOC(=O)C1CCN(S(=O)(=O)c2cc(C(=O)N3CCCCC3)ccc2OC)CC1,-3.81

row,SMILES,"hERG current change (%, negative = inhibition) at 10uM [%]"
1,Cc1cccc(N(CC(=O)NC2CCCC2)C(=O)c2cc3cc4cccc(C)c4nc3s2)c1C,3.27
2,CC(=O)NC(c1ccc([N+](=O)[O-])cc1)c1c(O)ccc2ccccc12 (centres unmarked),9.69
3,COC(=O)c1ccc(/C=N/OCC(=O)Nc2cc(F)ccc2F)cc1,8.03
4,COC(=O)C(N)Cc1ccc(O)c(O)c1.Cl (centres unmarked),-2.08
5,CC(Sc1nnc(C2CCCCC2)n1N)C(=O)NCc1ccc2c(c1)OCO2 (centres unmarked),3.2
6,Cc1occc1-c1nnc(SCCNCCO)o1.O=C(O)C(=O)O,63.6
7,CC(=O)Nc1ccc(NC(=O)CN2CCCC(C)C2)c(Cl)c1 (centres unmarked),-5.17
8,Cn1c(/N=C/c2cccs2)nc2ccccc21,3.96
9,COc1c(C)cc(NC(=O)c2ccc3c(c2)NC(=O)CO3)cc1C,10
10,CCOC(=O)/C(C#N)=C1/C=C(C)c2ccccc2N1,13.6
11,Cc1ccc(C(C)n2cc(C(=O)NCc3ccncc3)nn2)cc1 (centres unmarked),-6.72
12,COc1cc(C2c3cc4c(cc3C(OC3OC5COC(c6cccs6)OC5C(O)C3O)C3COC(=O)C23)OCO4)cc(OC)c1O (centres unmarked),17.4
13,Cc1ccc2nsnc2c1S(=O)(=O)NCc1cccnc1,-1.19
14,CCN(CC)S(=O)(=O)c1cccc(N=Nc2sc(N)nc2C)c1,-12.8
15,Nc1scn[n+]1Cc1cccc2cccnc12.[Br-],-11.1
16,Cc1ccc(/C(COc2ccccc2O)=N\O)cc1,-4.13
17,CCN(CC)C(=O)c1[nH]cnc1C(=O)Nc1ccon1,0.396
18,COc1ccc(C(=O)C(C)N(C(=O)c2ccc(Cl)cc2Cl)N2C(=O)C3C4C=CC(C4)C3C2=O)cc1 (centres unmarked),0.401
19,CCOC(=O)c1cncc(O)c1,9.08
20,CC(C)(C)C1CCC(=NNC(=S)NCc2ccccc2)CC1 (centres unmarked),7.64
21,COc1cccc(NC(=O)c2ccc3c(c2)CCCC3)c1,-2.55
22,Clc1nc(NC2CCCC2)nc(N2CCOCC2)n1,9.9
23,Cn1c(=O)c2c(nc(Oc3cccc(O)c3)n2C)n(C)c1=O,24.2

row,SMILES,"hERG current change (%, negative = inhibition) at 10uM [%]"
1,CCCNC(=O)CSc1nccn1Cc1ccc(OC)cc1,15.3
2,COc1ccccc1CNC(=O)[C@@H]1CCCN1C(=O)[C@@H]1Cc2ccccc2CN1C(=O)OC(C)(C)C,2.41
3,C[C@@]12CCC=C[C@H]1[C@H](c1ccc(/C=C/c3ccccc3)cc1F)N(Cc1ccccc1)C2=O,23.9
4,O=[N+]([O-])c1ccc(N2CCN(S(=O)(=O)c3ccc4ccccc4c3)CC2)cc1NCc1ccco1,14.7
5,CC1CCCCN1S(=O)(=O)c1ccc(S(=O)(=O)N(CC(=O)Nc2ccccc2)Cc2cccs2)cc1 (centres unmarked),28.6
6,COc1ccc(CN2CCNC(=O)C2CC(=O)NCc2cn3ccc(C)cc3n2)c(OC)c1 (centres unmarked),-8.13
7,Cc1cc(C)n(S(=O)(=O)c2cc(C(=O)O)c(Cl)cc2Cl)n1,3.12
8,N#Cc1ccc(-c2ccc(OCC(O)CN3CCOCC3)cc2)cc1 (centres unmarked),-18.4
9,COCCCN=Cc1c(C)[nH]n(-c2ccc(Br)c(C)c2)c1=O,-9.32
10,Cc1ccccc1N(CC(=O)NCc1ccco1)C(=O)CCC(=O)Nc1nccs1,-9.81
11,CCOC(=O)C1(CCCc2ccccc2)CCN(C(=O)CCn2cnnn2)CC1,-56.6
12,O=C(c1cc(-c2cccnc2)nc2ccc(Cl)cc12)N1CCC2(CC1)OCCO2,-14.2
13,CC(C)c1nnc(NC(=O)CCC(=O)Nc2ccc(F)cc2)s1,18.7
14,CS(=O)(=O)c1ccc2nc(NC(=O)c3ccccc3)sc2c1,10.8
15,CCc1ccc(N(CC(=O)NC2CCCCC2)C(=O)CNC(=O)c2ccco2)cc1,-13.6
16,CCN1CCN(C(=O)c2ccc3c(=O)n(C4CCCC4)c(=S)[nH]c3c2)CC1,-12.7
17,Cc1nn(-c2ccc(F)cc2)c2nc(N)c(C#N)c(-c3ccc(O)c(O)c3)c12,23.7
18,O=C(CSc1n[nH]c(=O)n1C1CC1)NCc1ccccc1,1.18
19,COc1ccc(CCNc2oc(-c3ccccc3OC)nc2C#N)cc1OC,-1.1
20,COc1ccccc1C(=O)Oc1ccc(C(C)C)cc1,-3.13
21,COc1ccc(/C=C(/NC(=O)c2ccco2)C(=O)N2CCCCC2)cc1,17.2
22,O=c1cc(N2CCN(Cc3ccccc3)CC2)c(-c2ccccc2)n[nH]1,-1.87
23,Cc1ncc(CO)c2cc(S(=O)(=O)c3ccc(F)cc3)c(=O)oc12,19.2

row,SMILES,"hERG current change (%, negative = inhibition) at 10uM [%]"
1,CC(C)CCn1c(CN2CCOCC2)nc2c1c(=O)n(C)c(=O)n2C,1.4
2,C=CCNc1ncnc2ccc(Br)cc12,3.72
3,Cc1nc(NCC2CCCO2)c2nnn(Cc3ccccc3)c2n1 (centres unmarked),6.57
4,CCS(=O)(=O)c1ccc2oc(SCC(=O)NC3CCCC(C)C3C)nc2c1 (centres unmarked),-38.8
5,CC1CN(C(C)C(=O)NC(c2ccccc2)c2ccccc2)CC(C)O1 (centres unmarked),1.52
6,O=C(N/N=C1/CCCc2ccccc21)c1cc([N+](=O)[O-])cc([N+](=O)[O-])c1,16.6
7,c1csc(CNc2ncnc3sccc23)c1,-20.3
8,COc1ccc(N2CC(C(=O)Nc3nc4ccc(S(C)(=O)=O)cc4s3)CC2=O)cc1 (centres unmarked),3.32
9,O=c1cc(N2CCN(Cc3ccccc3)CC2)[nH]c(=O)n1Cc1ccc(F)cc1,5.93
10,COc1ccccc1OCC(=O)OCc1cc(-c2ccco2)on1,8.5
11,NC(=O)c1ccc(CSc2nc3ccccc3s2)cc1,11.1
12,Cc1ccc2nc(Cl)c(/C=N/NC(=O)c3ccccc3O)cc2c1,6.27
13,O=C(COC(=O)c1cnccn1)Nc1ccc(Cl)cc1,-4
14,O=C(NCCC1=CCCCC1)c1cc(COc2ccc(F)cc2Cl)on1,10.4
15,CCOc1ccc(N/C(SC)=C(/C#N)C(N)=O)cc1,4.98
16,Cc1cc(C)n(CC(O)CN2c3ccccc3Sc3ccccc32)n1 (centres unmarked),9.03
17,O=C(Nc1cc(N2CCOCC2)ncn1)NC1(C(F)(F)F)Oc2ccc(Cl)cc2O1 (centres unmarked),3.83
18,CC(=O)Nc1ccc(OCC(=O)c2ccc(C)cc2C)cc1,1.97
19,CCN(C(=O)Cn1c(=O)n2nc(CCn3nc(C)cc3C)nc2c2ccccc21)c1cccc(C)c1,-24.7
20,CC(C)NC(=O)[C@]1(C)CCC[C@@]2(C)C3CC[C@@]4(C)C[C@]3(CCC21)CC4=O (some centres unmarked),6.23
